Over roughly 110,000 compounds, “z-score” has its median near -0.1; the highest 2% begin near 2. The list shows a part of the results. The source made the active and inactive calls.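 The calls were made as follows: active = z-score in the third read window above 3 or below -3; inactive = the rest.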
Molecular target: Metabotropic glutamate receptor 8 (Rattus norvegicus) (UniProt P70579)
Assay: rat mGluR8 modulators via GIRK flux, primary screen, cell-based, thallium flux, HTS (AID 488969)
Conditions: HEK293 rat mGluR8, GIRK (G protein-gated inwardly rectifying potassium channel) thallium flux, FluoZin2; at 10 µM; stronger effect = higher value; submaximal glutamate (EC20) added with thallium

UniProt P70579, sequence (P70579 whole entry, looked up): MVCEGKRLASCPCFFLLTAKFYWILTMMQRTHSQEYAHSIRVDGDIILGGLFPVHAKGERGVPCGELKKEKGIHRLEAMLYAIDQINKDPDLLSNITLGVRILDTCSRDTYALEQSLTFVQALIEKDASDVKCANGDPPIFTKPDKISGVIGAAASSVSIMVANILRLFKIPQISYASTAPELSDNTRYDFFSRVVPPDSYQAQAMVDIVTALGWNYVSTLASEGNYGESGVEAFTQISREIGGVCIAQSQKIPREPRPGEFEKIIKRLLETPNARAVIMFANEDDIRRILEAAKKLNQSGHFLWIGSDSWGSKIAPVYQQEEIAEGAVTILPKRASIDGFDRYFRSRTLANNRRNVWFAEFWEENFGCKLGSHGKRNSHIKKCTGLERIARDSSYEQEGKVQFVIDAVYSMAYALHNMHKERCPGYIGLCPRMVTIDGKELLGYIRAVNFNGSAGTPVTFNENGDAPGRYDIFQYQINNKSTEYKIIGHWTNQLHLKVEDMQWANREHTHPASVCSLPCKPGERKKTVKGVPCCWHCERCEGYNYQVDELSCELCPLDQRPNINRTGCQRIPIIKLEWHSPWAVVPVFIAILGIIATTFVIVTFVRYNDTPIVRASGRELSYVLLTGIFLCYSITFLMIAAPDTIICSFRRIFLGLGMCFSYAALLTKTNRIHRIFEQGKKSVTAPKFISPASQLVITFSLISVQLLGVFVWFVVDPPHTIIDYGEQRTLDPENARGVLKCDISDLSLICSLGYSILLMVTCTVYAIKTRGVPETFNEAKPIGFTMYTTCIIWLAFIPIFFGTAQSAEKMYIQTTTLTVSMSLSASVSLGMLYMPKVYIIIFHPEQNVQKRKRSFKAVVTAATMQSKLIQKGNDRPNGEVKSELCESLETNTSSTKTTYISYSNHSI

Compound | z-score
COc1ccc(C(=O)COC(=O)C2CCCN2C(=O)C23CC4CC(CC(C4)C2)C3)cc1 (stereo not drawn) | 0.0625
CN(C)S(=O)(=O)N1CCN(S(=O)(=O)c2ccc(F)cc2)CC1 | -0.569
O=[N+]([O-])c1ccccc1OCCCN1CCOCC1 | -0.0205
Clc1ccc(Cn2ncc3c(NCc4cccnc4)ncnc32)cc1 | -0.407
Cc1ccc(-c2cn3c(=S)[nH]nc3s2)cc1 | -0.312
CC(C)(C)C(=O)Nc1ccccc1C(=O)Nc1ccncc1 | 0.0756
Cc1cc(C)cc(-n2cnc3cc(C(=O)O)ccc32)c1 | -0.392
CCCCCCCCC(=O)N/N=C/c1cccc(Br)c1 | -0.128
O=C1CC(N2CCCc3ccccc32)C(=O)N1c1ccccc1Cl (stereo not drawn) | -0.446
COCCCNC(=O)CSC1=Nc2ccccc2C2=NC(Cc3c[nH]c4ccccc34)C(=O)N12 (stereo not drawn) | 0.768
Cc1ccc(Cn2nnnc2CN2CCC(O)(c3ccc(F)cc3)CC2)cc1 | 1.6
N#Cc1c(N2CCN(C(=O)c3ccccc3Cl)CC2)nc(-c2ccccc2)c2c1CCCC2 | -0.453
CC(C)C(c1nnnn1Cc1ccc(F)cc1)N1CCSCC1 (stereo not drawn) | 0.351
COc1cccc(NC(=O)c2nn(C)cc2Br)c1 | 0.333
CCOC(=O)c1ccc(NC(=O)Cn2nnc(-c3ccccc3F)n2)cc1 | -0.121
CCOC(=O)C1C(=O)NC(N2CCCCC2)=NC1c1ccco1 (stereo not drawn) | -0.274
Cn1nc([N+](=O)[O-])nc1Oc1ccccc1N | -0.0598
O=C(O)CP(=O)(c1ccccc1)c1ccccc1 | -0.183
COC(=O)c1c(NC(=O)c2nc3ccccc3s2)sc2c1CCN(C(C)=O)C2 | -0.909
Cc1nc2nc(-c3ccco3)[nH]n2c(=O)c1Cc1ccccc1 | -1.16
COC(=O)COc1ccc(S(=O)(=O)N2CCOCC2)cc1C | 0.482
O=C(NC1CCCC1)c1cccc(S(=O)(=O)N2CCCCC2)c1 | 0.0926
Cc1ccc(C2=NN(CC(=O)NCc3ccccn3)C(=O)CC2)cc1 | 0.995

Compound | z-score
COc1cc(Cl)cc(C2NC(=O)NC(C)=C2C(C)=O)c1OCC(=O)O (stereo not drawn) | -0.405
COc1ccccc1NC(=O)CCc1nc(-c2cccs2)no1 | -0.452
C(#CCN1CCOCC1)COC(c1ccccc1)c1ccccc1 | -0.00302
O=C(c1ccccc1)N1CCN(C2CCCCC2)CC1 | 0.248
O=C1CC(N(C(=O)c2ccco2)c2cccc(Cl)c2)C(=O)N1c1cccc(Cl)c1 (stereo not drawn) | -0.266
CCCCN(C)C(=O)c1cn(CC)c2nc(C)ccc2c1=O | -0.12
CCn1c2ccccc2c2cc(NC(=O)COC(=O)c3cc(OC)c(OC)cc3OC)ccc21 | 0.0126
COc1cc(OC)c(-c2nn3c(-c4ccco4)nnc3s2)cc1OC | -1.13
COc1ccc(Nc2nc(-c3cccs3)nc3ccccc23)c(OC)c1 | -0.0367
COc1cc(O)oc1C=Nc1ccc(Cl)cc1 | -0.289
CCCCc1ccc(NC(=S)Nc2cccnc2)cc1 | 2.66
Cc1nn(Cc2ccccc2)c(C)c1NC(=O)c1noc2c1CCc1ccccc1-2 | 0.79
COc1ccc(C(C)=O)cc1COC(=O)CNC(=O)c1ccccc1F | -0.19
COc1ccc(C2c3c(n[nH]c3C)CC(C)(O)C2C(C)=O)cc1OC (stereo not drawn) | -0.177
COc1ccc2nc(N3CCCCC3)c(C#N)cc2c1 | -0.776
Cn1c(CN2CCCC2)nc2cc(NS(=O)(=O)c3ccccc3)ccc21 | 0.133
O=C(NCCO)c1c(O)c2cccc3c2n(c1=O)CC3 | 0.564
O=C(CCn1c(=O)oc2ccccc21)N(Cc1ccccc1)c1ccccn1 | 0.207
COc1ccc(/C=C/C(=O)c2c(C)nc3ccccn23)cc1 | -0.28
Cc1cc(C(=O)N/N=C2\CC(=O)CC(C)(C)C2)c(C)n1-c1ccccc1 | -0.102
CC1CCC(C(C)C)C(OC(=O)C2=C3c4ccccc4S(=O)(=O)N3CC2)C1 (stereo not drawn) | -0.046
Cc1ccc2nc(/C(C#N)=C\c3cc(C)n(-c4cccc([N+](=O)[O-])c4)c3C)[nH]c2c1 | -0.342
CC1(C)CC(=O)c2cc(C(=O)NCc3ccco3)c(=O)n(-c3ccc(Cl)cc3)c2C1 | -0.635

Compound | z-score
Cc1[nH]c(=O)[nH]c(=O)c1S(=O)(=O)N1c2ccc(F)cc2CCC1C (stereo not drawn) | 0.0752
O=C1OCC(CO)(CO)N=C1NNc1ccc(Cl)c(Cl)c1 | 0.458
Cc1cccc(Cn2c(Sc3nc(C)cs3)nc3c2c(=O)[nH]c(=O)n3C)c1 | -1.25
O=C1C2C(c3ccccc3)=NN(c3ccccc3)C2C(=O)N1c1ccccc1 (stereo not drawn) | -0.169
c1ccc(-c2n[nH]c(-c3ccccn3)n2)cc1 | -0.134
CCOCC(=O)Nc1cccc(C(=O)OCC)c1 | -0.217
CC1(C)CC(=O)C=C(NC2CCCCCCC2)C1 | -0.289
Nc1ccccc1-c1nnc(-c2ccc(-c3ccccc3)cc2)o1 | 0.084
O=C(NCc1cccnc1)NC1(C(F)(F)F)Oc2ccccc2O1 | -0.523
O=c1c2ccccc2nc(SCc2ccc([N+](=O)[O-])cc2)n1-c1ccccc1 | -0.334
COc1ccccc1-c1cnnc(N/N=C/c2ccc(-c3cccc(Br)c3)o2)n1 | 0.0172
COc1ccc(-c2c(O)c(C#N)c(-c3ccccc3)n(-c3ccc(OC)cc3)c2=O)cc1 | -0.447
COC(=O)c1cc2occc2n1CC(=O)Nc1ccc(OC)c(OC)c1OC | -0.118
O=C1C=C(O)CC(c2ccc(Cl)cc2)C1 (stereo not drawn) | 0.109
Cc1cc(C)c2nc(SC(C)C#N)cc(C)c2c1 (stereo not drawn) | 0.103
CC(C)(Cl)C1Cc2cc3ccc(=O)oc3cc2O1 (stereo not drawn) | -0.056
O=S(=O)(/N=C(\c1ccccc1)N1CCOCC1)c1ccc(Cl)cc1 | -0.155
O=C(CCCc1cccs1)Nc1nc(-c2ccc(F)cc2)cs1 | -0.134
Clc1ccc(CSc2snnc2-c2ccccc2)cc1 | -0.0684
CCOC(=O)CSCC(=O)N1N=C(c2cccs2)CC1c1ccc(F)cc1 (stereo not drawn) | -0.537
CC(=O)N1C(=O)N(C(C)=O)C2C1N(C(C)=O)C(=O)N2C(C)=O (stereo not drawn) | -0.295
CCc1ccc(OCC(=O)NC(=S)Nc2ccc(S(=O)(=O)NC3CCCCC3)cc2)cc1 | 0.997
Cc1csc(NC(=S)Nc2cccc(Cl)c2)n1 | active: 14.7

Compound | z-score
Cc1ccc(NC2=C/C(=N/S(=O)(=O)c3cccs3)c3ccccc3C2=O)cc1 | -0.0469
O=C(Nc1ccc2c(c1)OCCO2)c1cnc2ccccn2c1=O | -1.29
CCOC(=O)CNC(=O)CSc1ncnc2c1cnn2Cc1ccccc1 | 1.54
COc1ccccc1C(=O)Nn1cnc2ccccc2c1=O | 0.366
COc1cccc(C(=O)COc2ccccc2N2C(=O)C3C4C=CC(C4)C3C2=O)c1 (stereo not drawn) | -0.177
O=S(=O)(/N=C(\Nc1ccc(F)cc1)C(F)(F)F)c1ccccc1 | -0.0535
c1ccc(Cn2c(SCc3nc4ccccc4s3)nnc2-c2ccco2)cc1 | -2.72
COc1c(O)ccc2cnn(-c3ccccc3C)c(=O)c12 | -0.0686
COc1cc(CNCc2ccccn2)ccc1OCc1ccc(Cl)cc1Cl | 0.564
CCS(=O)(=O)n1nc(NCc2cccc(OC)c2)nc1NCc1cccc(OC)c1 | 0.0211
O=C(C1CC(=O)N(C2CCCC2)C1)N1CCN(c2ccc(F)cc2)CC1 (stereo not drawn) | 0.304
O=S1(=O)C=C(Oc2ccc3ccccc3c2)c2ccccc21 | 0.0277
COc1ccc(C(=O)NNC(=O)CSc2nnc(COc3ccc4ccccc4c3)n2C)cc1 | -0.222
O=C(N1CCOCC1)C12CC3CC(C1)CC(C(=O)N1CCOCC1)(C3)C2 | 0.153
O=C(Nc1ccc2c(c1)OCO2)N1CCN(C(=O)C2CCCO2)CC1 (stereo not drawn) | 2.05
Cc1ccc(N2CN=C(c3ccccc3)NC2=S)cc1 | 0.328
Cc1ccc(OCC(=O)NC(=S)Nc2cccc(NC(=O)c3ccc(Cl)cc3Cl)c2)cc1 | 0.148
O=C(NC1CCCCC1)Nn1c(-c2ccccc2)nc2ccccc2c1=O | -0.211
CCC(=O)Nc1ccccc1C(=O)N1CCCC1 | 0.0704
O=S(=O)(Cc1ccccc1)c1cnc2ccccc2n1 | 0.576
COC(=O)c1cc(OC)c(OC)cc1NC(=O)CSc1nnnn1Cc1ccccc1 | -0.845
Cc1ccc(S(=O)(=O)N(CC(=O)N=Nc2c(O)[nH]c3ccccc23)c2ccc(C)c(C)c2)cc1 | -0.128
Cc1cc(=O)n2[nH]c(N)c(N=Nc3ccccc3F)c2n1 | -0.231

Compound | z-score
CCc1ccc(NC(=O)CSc2nc3ccccc3c(=O)n2CCCC(=O)N2CCCC2)cc1 | -0.305
O=C(CSc1ccccn1)Nc1nc2ccc(Br)cc2s1 | -0.035
Cc1ccc(NC(=O)c2cccs2)cc1 | -0.00363
Cc1cc(=O)oc2cc(OC(=O)CCN3C(=O)c4ccccc4C3=O)ccc12 | -0.209
CCOC(=O)C1=C(C)NC(=O)NC1c1ccc(C)o1 (stereo not drawn) | 0.0551
Cc1cccc(NC(=S)N2CCN(Cc3ccccc3)CC2)c1C | -0.15
CC(C)Cc1cc(C(=O)NCc2cccnc2)no1 | -0.807
CCOC(=O)c1c(NC(=S)Nc2cccc(C)c2)sc2c1CC(C)(C)SC2 | 0.0638
O=C1c2cccnc2C(O)N1C1CCCCC1 (stereo not drawn) | 0.797
O=C(O)C(Cc1ccccc1)NS(=O)(=O)c1ccc2c(c1)OCCO2 (stereo not drawn) | -0.105
Cc1ccccc1Nc1sc(C(=O)Nc2cccc(Cl)c2)c(N)c1C(N)=O | 0.124
O=C(NCCCN1CCOCC1)C1COc2ccccc2O1 (stereo not drawn) | -0.086
Cc1ccccc1CSc1nsc(N)n1 | 0.11
Cc1cc(N2CCN(S(=O)(=O)c3ccc(Cl)cc3)CC2)c2ccccc2n1 | -0.54
C/C(N)=C(/C#N)C(=O)COC(=O)CC1CCCC1 | 1.77
COCCN(C(=O)CCC(=O)Nc1cccnc1)C(C(=O)NC1CCCCC1)c1ccccc1 (stereo not drawn) | -0.139
O=C1S/C(=C\c2ccc(N3CCOCC3)o2)C(=O)N1Cc1ccc(F)cc1 | 0.0599
CC12CCC(C(=O)N(CCC#N)CCC#N)(CC1=O)C2(C)C (stereo not drawn) | 0.861
O=C(COC(=O)c1ccc(S(=O)(=O)NCc2ccco2)cc1)c1ccccc1 | 0.134
O=C(NNC(=O)c1ccccc1F)c1cccc(Cl)c1 | 0.0326
CC(=O)NCCn1c(SCc2ccccc2C)nc2ccccc2c1=O | -0.494

From PubChem BioAssay AID488969 (Vanderbilt High Throughput Screening Facility, 2010)
